About 14,000 (4.5%) of roughly 310,000 compounds showed an effect of 50% or more. Effects have a minus sign here. This is one part of the list.
These molecules were tested against human ether-à-go-go-related gene (hERG) potassium channel (human, UniProt Q12809) (assay: primary screen, population patch clamp on CHO cells stably expressing hERG).
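Also: peak tail current of the secondary pulse compared with the same well before compound.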

human ether-à-go-go-related gene (hERG) potassium channel, sequence (Q12809 whole entry, looked up): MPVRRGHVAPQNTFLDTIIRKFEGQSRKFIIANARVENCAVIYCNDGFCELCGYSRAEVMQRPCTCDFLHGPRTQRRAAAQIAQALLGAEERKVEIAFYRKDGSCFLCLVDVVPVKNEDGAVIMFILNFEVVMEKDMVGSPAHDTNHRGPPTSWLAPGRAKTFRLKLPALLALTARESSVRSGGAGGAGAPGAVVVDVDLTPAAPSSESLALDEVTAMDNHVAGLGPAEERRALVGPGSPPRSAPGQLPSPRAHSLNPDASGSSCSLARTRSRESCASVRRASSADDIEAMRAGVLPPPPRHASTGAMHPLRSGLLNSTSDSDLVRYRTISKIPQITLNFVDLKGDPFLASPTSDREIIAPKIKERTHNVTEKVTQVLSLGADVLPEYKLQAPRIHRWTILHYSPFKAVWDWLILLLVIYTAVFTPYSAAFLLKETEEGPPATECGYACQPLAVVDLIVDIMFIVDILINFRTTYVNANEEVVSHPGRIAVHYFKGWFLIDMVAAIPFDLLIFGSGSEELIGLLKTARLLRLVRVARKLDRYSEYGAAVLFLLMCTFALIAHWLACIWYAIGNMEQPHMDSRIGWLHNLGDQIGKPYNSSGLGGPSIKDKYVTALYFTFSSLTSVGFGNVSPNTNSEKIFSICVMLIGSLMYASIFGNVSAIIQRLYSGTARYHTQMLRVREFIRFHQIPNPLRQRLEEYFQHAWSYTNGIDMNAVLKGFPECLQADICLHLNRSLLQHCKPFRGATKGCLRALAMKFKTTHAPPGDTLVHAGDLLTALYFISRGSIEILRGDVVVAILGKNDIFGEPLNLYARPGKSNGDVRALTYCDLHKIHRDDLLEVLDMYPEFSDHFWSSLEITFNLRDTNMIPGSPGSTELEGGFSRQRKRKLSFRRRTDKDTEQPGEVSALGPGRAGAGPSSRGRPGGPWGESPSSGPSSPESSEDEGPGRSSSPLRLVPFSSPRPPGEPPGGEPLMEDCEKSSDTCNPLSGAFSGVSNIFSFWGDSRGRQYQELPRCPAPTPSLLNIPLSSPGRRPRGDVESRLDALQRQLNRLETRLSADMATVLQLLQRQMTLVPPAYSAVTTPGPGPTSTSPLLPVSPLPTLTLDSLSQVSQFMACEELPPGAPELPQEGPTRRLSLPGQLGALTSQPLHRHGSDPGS

SMILES | hERG current change (%, negative = inhibition) at 10uM [%]
CC(C)CNc1cc(=O)n(C)c(=O)n1C | 14.4
O=C(NCC1CCCO1)C(c1ccncc1)N(Cc1ccc(F)cc1)C(=O)CN1C(=O)c2ccccc2S1(=O)=O (stereo not drawn) | -58.3
O=c1cc(CN2CCN(c3ccccc3)CC2)nc2scc(-c3ccccc3)n12 | -7.83
CN(CC(=O)NC(=O)NCc1ccccc1)Cc1cccc(Cl)c1Cl | -7.9
CCS(=O)(=O)Nc1ccc2c(c1)N(C(C)=O)c1ccccc1CC2 | -6.43
CCCOc1ccc(C2=CC(=O)C[C@H](c3ccc(OC)cc3)C2)cc1 | 21.7
CSc1nnc(C)c(=O)n1COC(=O)COc1ccccc1 | 12.1
O=C(Cn1[nH]c(=O)c2ccccc2c1=O)OCC(=O)c1ccc(F)cc1 | 24.6
COC(=O)C(CC(C)C)NC(=O)c1ccc(F)cc1 (stereo not drawn) | 13.8
CN(C)S(=O)(=O)c1cccc(C(=O)OCC(=O)Nc2ccccc2OC(F)F)c1 | 8.35
O=C(Nc1ccccc1)N1CCC(n2c(=O)[nH]c3ccccc32)CC1 | -8.18
CCCN(CCC)S(=O)(=O)c1cccc(-c2csc(C)n2)c1 | -0.748
CCOC(=O)C1=C(COC(=O)/C=C/c2cccc(OC)c2)NC(=O)NC1C (stereo not drawn) | -5.72
C/C(=C\c1ccccc1)C(=O)n1nnc2ccccc21 | 6.32
COc1ccc(CC(=O)N2CCN(c3ccc(C4=NNC(=O)CC4C)cc3)CC2)cc1 (stereo not drawn) | 9.66
CCC(=O)Nc1cc2c(C)cc(=O)oc2cc1C | -14.2
COc1ccc(NS(=O)(=O)c2cccc(NC(=O)C3=NN(c4ccccc4)C(=O)CC3)c2)cc1 | -35.1
O=C(NCCN1CCOCC1)c1cccs1 | 9.07
COc1cccc(C(=O)NCC(=O)OCc2ccc(F)cc2Cl)c1 | 12.5
COc1ccc(Br)cc1-c1noc(-c2ccccc2)n1 | 9.67
CCc1cccc(NC(=S)N(CCOC)C(C)c2ccco2)c1 (stereo not drawn) | -2.48
COc1ccc(NC(=O)C2CC(c3ccc(Cl)cc3)=NO2)cc1OC (stereo not drawn) | -4.68
CC(=NCCN1CCOCC1)c1c(O)n(C2CCCCC2)c(=O)[nH]c1=O | -15.3

SMILES | hERG current change (%, negative = inhibition) at 10uM [%]
Cc1cc(NC(=O)Cc2c(F)cccc2Cl)no1 | 11.1
NS(=O)(=O)c1ccc(NC(=O)c2ccc(S(=O)(=O)N3CCOCC3)o2)cc1 | 10
O=S(=O)(O)c1nc2ccccc2[nH]1 | 3.93
CCOC(=O)NC(NC(=S)Nc1ccccc1[N+](=O)[O-])C(Cl)(Cl)Cl (stereo not drawn) | -13.1
O=C(/C=C/c1c(F)cccc1Cl)Nc1ncccn1 | 43.5
CCOC(=O)CN1C(=O)N[C@@H](c2cccc(C(F)(F)F)c2)C(C(C)=O)=C1C | 11.8
O=C(COC(=O)c1ccc[nH]c1=O)NC1CCCCCCC1 | 9.76
O=C(c1ccc(C(F)(F)F)cc1)N1CCN(S(=O)(=O)c2ccc3c(c2)OCCCO3)CC1 | -6.27
NS(=O)(=O)c1ccc2nc(NC(=O)Nc3ccc(F)cc3)sc2c1 | 6.61
O=C(Cc1c(C(=O)O)[nH]c2ccccc12)NCCN1CCN(c2ccccc2F)CC1 | -1.46
COc1ccccc1N1C(=O)C(Cl)=C(N2CCCC2)C1=O | -16.9
O=C(Cn1cnc2c(NC(=O)OCc3ccccc3)ncnc21)NCc1ccccn1 | -7.38
O=C(NCC(=O)N1CCCC(C(F)(F)F)C1)c1ccc2ccccc2c1 (stereo not drawn) | -11.3
O=C1C2C3C=CC(C3)C2C(=O)N1c1ccc(S(=O)(=O)Nc2nccs2)cc1 (stereo not drawn) | 17.3
COc1cc(/C=N/N=C(\N)c2nonc2N)cc(OC)c1OC | 9.55
COc1ccc(Cl)cc1NC(=S)Nc1ccccc1F | 15.3
CCc1ccc(C(=O)NCc2ccc(Cl)cc2Cl)cc1 | -11.9
Cc1ccc(S(=O)(=O)c2nc(NN(C)C)sc2Cl)cc1 | -5.48
COc1cccc(NC(=O)CC2COc3ccccc3O2)c1 (stereo not drawn) | 9.43
Cc1ccc(S(=O)(=O)NCC(=O)NCC(=O)N2CCC(C)CC2)cc1 | 5.63
Cc1ccc(NC(=O)Cc2c[nH]c3ccccc23)cc1S(=O)(=O)N1CCCCCC1 | 14.1
CN(CC(=O)Nc1cccc(F)c1)C(=O)C1(c2ccccc2)CC1 | 11.3
COc1ccc(/C=C2\N=C(C)OC2=O)cc1[N+](=O)[O-] | 15.1

SMILES | hERG current change (%, negative = inhibition) at 10uM [%]
O=C(Cc1ccc(Br)cc1)NC1CCCCC1 | -6.87
CC(C)n1ncc2c(C(=O)Nc3cccc(S(=O)(=O)N(C)C)c3)cc(C3CC3)nc21 | -8.66
COC(=O)c1ccc(CSc2nc3ccccc3c(=O)n2N)cc1 | 16.2
COc1ccc(-c2cc(C(F)(F)F)n3nc(C(=O)N4CCOCC4)c(Cl)c3n2)cc1 | -18.4
CC1=CC(C)C2C(=O)N(CCC[N+](C)(C)C)C(=O)C2C1.[I-] (stereo not drawn) | 16.4
O=C(c1cccs1)N1CCN(S(=O)(=O)N2CCCCC2)CC1 | -4.93
Cc1occc1C(=O)N/N=C/c1sc(N2CCOCC2)nc1-c1ccccc1 | -6.48
Cc1ccc(C)c(NC(=O)C2CCCC2)c1 | 15.6
CSC(=NCc1cccnc1)NS(=O)(=O)c1cccs1 | 22.8
CCN1CCN(c2ccc(S(=O)(=O)N3CCOCC3)cc2NC(=O)c2cc(Cl)nc3ccccc23)CC1 | -47.5
O=C(NC(=S)Nc1ccc2[nH]c(=O)[nH]c2c1)c1ccccc1Cl | 14.7
C=C(C)C(=O)N1CC2(CC(c3cccc(NC(=O)/C=C\C=C/C)c3)=NO2)C[C@H]1C(N)=O (stereo partly drawn) | 0.942
O=C(Cc1nnc(NC(=O)Nc2ccc(F)cc2)s1)NCc1ccccc1 | 6.66
Cc1ccc(SCC(=O)OCC(=O)N(CC(C)C)c2c(N)n(Cc3ccccc3)c(=O)[nH]c2=O)cc1C | 9.3
C=C(C)CCOC(=O)C(CC(=O)O)NCc1ccco1 (stereo not drawn) | 9.52
COc1cccc(NC(=O)CN(C)C(C)C(=O)NC(=O)NC2CCCCC2)c1 (stereo not drawn) | -15.7
O=C(Nc1ccc(C(=O)N2CCOCC2)cc1)c1cccs1 | 19.7
CN(c1ccc(OCC(=O)OCC(=O)Nc2ccccc2F)cc1)S(=O)(=O)c1cccs1 | 15.5
Cc1ccc(NC(=O)NCCCl)cc1S(=O)(=O)N1CCOCC1 | 1.99
Cl.Oc1cccnc1CCc1ccccc1 | 7.41
COc1ccc(CCNc2nc(C)nc3c2nnn3Cc2ccccc2)cc1OC | 9.27
COc1cc(N2C(=O)CSC23C(=O)Nc2ccccc23)cc(OC)c1OC (stereo not drawn) | -4.35
COc1ccc(-c2nc(N)n(C(=O)c3ccccc3Cl)n2)cc1 | 2.37

SMILES | hERG current change (%, negative = inhibition) at 10uM [%]
COc1ccc(C)cc1-n1ccn(CC(=O)Nc2ccc(Br)cc2F)c(=O)c1=O | -10.5
O=C(Nc1ccccc1)c1ccc(=O)n(Cc2cccc(Cl)c2)c1 | -32.1
Cc1scc(C(=O)N2CCN(c3ccc(Cl)cc3)CC2)c1C | -3.66
Cc1cc(C)c2c(CN3CCN(CCO)CC3)cc(=O)oc2c1 | -50.4
CCCCn1c(=O)n(Cc2cccc(F)c2)c(=O)c2c1ncn2Cc1ccco1 | -14.7
COCCCN1CCc2[nH]c(=S)[nH]c(=O)c2C1 | 12.2
COc1cc(SC)ccc1C(=O)Nc1nc(C)cs1 | 12.3
Cc1cc([N+](=O)[O-])ccc1NC(=S)NC(=O)Cc1ccccc1 | 4.65
O=C(CCCCn1c(=O)[nH]c2ccccc2c1=O)NCCc1c[nH]c2ccccc12 | -0.372
O=c1c2sc(-c3ccccc3)cc2nc2n1CCCCC2 | -13.1
C[N+](C)(C)CCOC(N)=O.[Cl-] | 17.7
Cc1c(C(=O)O)c(-c2ccccc2)nn1-c1ccccc1 | 10.9
O=c1oc2ccc(C#CC3(O)CCCCC3)cc2cc1-n1cc(C2(O)CCCCC2)nn1 | 24.7
CNC(=O)C1CN(C(=O)c2cccc(S(=O)(=O)N3c4ccccc4CC3C)c2)c2ccccc2O1 (stereo not drawn) | -30.7
COC(C(=O)Nc1ccc(C(N)=O)cc1)c1ccccc1 (stereo not drawn) | 13.9
CC(=O)c1cccc(NC(=O)C(C)OC(=O)c2cccc(-n3cnnn3)c2)c1 (stereo not drawn) | -31.9
Cc1ccc2nsnc2c1NC(=S)NC(=O)c1ccco1 | 9.47
O=C(O)CCC(=O)Nc1ccc(-c2nnc(-c3ccco3)o2)cc1 | 7.35
CNC(=S)/N=C/NOCc1ccc(Cl)cc1Cl | -10.2
COc1ccc(NC(=O)NCCCCc2ccccc2)c(OC)c1 | 21.3
CC(C)[C@H](NC(=O)N1CC(=O)Nc2ccccc21)C(=O)N1CCC(C(=O)O)CC1 | 22.2

— PMC4336329 (PLoS ONE, 2015)
